Data reported in publication PMC4336329 (PLoS ONE, 2015).
About 14,000 (4.5%) of roughly 310,000 compounds showed an effect of 50% or more. Effects have a minus sign here. Some of the results follow.

biological target: human ether-à-go-go-related gene (hERG) potassium channel (human, UniProt Q12809); experiment: primary screen, population patch clamp on CHO cells stably expressing hERG
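Also: peak tail current of the secondary pulse compared with the same well before compound.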

Chain of human ether-à-go-go-related gene (hERG) potassium channel (Q12809 whole entry, looked up): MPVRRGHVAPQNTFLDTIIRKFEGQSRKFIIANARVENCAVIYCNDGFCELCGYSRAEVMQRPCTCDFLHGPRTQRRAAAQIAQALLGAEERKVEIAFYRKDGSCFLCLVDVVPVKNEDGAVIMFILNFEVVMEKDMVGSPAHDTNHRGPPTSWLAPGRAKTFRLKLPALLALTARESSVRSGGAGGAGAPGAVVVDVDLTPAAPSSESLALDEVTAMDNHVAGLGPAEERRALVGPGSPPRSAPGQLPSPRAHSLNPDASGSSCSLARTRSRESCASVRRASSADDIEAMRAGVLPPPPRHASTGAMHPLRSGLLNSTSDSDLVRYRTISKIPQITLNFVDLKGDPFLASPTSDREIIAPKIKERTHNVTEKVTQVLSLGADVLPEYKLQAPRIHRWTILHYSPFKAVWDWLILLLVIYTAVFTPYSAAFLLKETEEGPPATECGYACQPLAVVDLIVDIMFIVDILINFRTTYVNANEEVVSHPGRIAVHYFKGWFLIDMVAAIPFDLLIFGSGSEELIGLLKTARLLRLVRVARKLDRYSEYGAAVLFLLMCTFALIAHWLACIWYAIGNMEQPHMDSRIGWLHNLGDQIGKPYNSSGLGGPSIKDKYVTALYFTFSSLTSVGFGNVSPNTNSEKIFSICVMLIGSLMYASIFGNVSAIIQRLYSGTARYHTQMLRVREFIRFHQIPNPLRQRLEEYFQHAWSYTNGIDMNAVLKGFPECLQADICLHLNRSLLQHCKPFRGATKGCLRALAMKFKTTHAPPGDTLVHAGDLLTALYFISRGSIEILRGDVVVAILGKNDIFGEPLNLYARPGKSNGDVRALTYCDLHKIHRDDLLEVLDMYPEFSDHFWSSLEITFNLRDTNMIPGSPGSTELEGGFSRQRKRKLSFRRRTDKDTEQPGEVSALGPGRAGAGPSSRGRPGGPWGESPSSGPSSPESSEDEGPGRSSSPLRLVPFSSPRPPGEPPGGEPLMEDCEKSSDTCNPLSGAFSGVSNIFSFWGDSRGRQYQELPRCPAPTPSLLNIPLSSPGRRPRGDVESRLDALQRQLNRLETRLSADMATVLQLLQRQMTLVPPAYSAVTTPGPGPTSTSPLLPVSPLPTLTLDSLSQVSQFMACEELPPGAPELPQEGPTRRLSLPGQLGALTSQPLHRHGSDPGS

SMILES | hERG current change (%, negative = inhibition) at 10uM
CC(Sc1nc2ccccc2s1)C(=O)c1c(N)n(C)c(=O)n(C)c1=O (centres unmarked) | -24.8%
COc1ccc(N2C(=O)c3ccccc3NC2c2ccc(OC)c(Cn3cc([N+](=O)[O-])cn3)c2)cc1 (centres unmarked) | 6.1%
CC(=O)NCCc1nc2ccccc2n1CCOc1ccccc1C | -2.09%
CCCCc1ccc(NC(=O)Nc2cc(C)nn2C)cc1 | 8.96%
COc1cc(CC(=O)Nc2cccc(C(F)(F)F)c2)cc(OC)c1OC | 0.0103%
Cl.O=C(c1ccccc1)C(CCC(CN1CCOCC1)C(=O)c1ccccc1)CN1CCOCC1 (centres unmarked) | -7.92%
O=C(NNC(=O)C1CCN(S(=O)(=O)c2cccc(Cl)c2)CC1)C1CC1 | -5.41%
O=C(OCC(=O)N1CCCC1)c1ccc(NS(=O)(=O)c2cccs2)cc1O | 17.1%
COc1ccc(-n2nc3c(c2NC(=O)C2CCCC2)CS(=O)C3)cc1 (centres unmarked) | -0.0255%
CCOP(=O)(OCC)C(NC(=O)c1cc([N+](=O)[O-])cc([N+](=O)[O-])c1)C(F)(F)F (centres unmarked) | 4.88%
CCC(C)(C)n1nnnc1C(c1ccccc1)N1CCN(C2CCCC2)CC1 (centres unmarked) | -7.1%
COc1ccc(C2NC(=O)NC(C)=C2C(C)=O)cc1 (centres unmarked) | 6.39%
CC1CN(Cc2nc3c(c(=O)n(C)c(=O)n3C)n2CCCc2ccccc2)CC(C)O1 (centres unmarked) | -8.29%
O=C(CSc1nc2c(sc3ccccc32)c(=O)n1CCO)NCC1CCCO1 (centres unmarked) | -3.42%
Cc1cccc(NNC(=S)Nc2c(C)cccc2C)c1 | -3.74%
COc1ccc(-c2csc(NC(C)=O)n2)cc1OC | 5.13%
Cc1c(S(=O)(=O)Nc2cc(Cl)ccc2Cl)c(=O)n(C)c(=O)n1C | 4.09%
Cn1c(SCC(=O)NCc2ccco2)nnc1-c1cccs1 | 3.45%
O=C(c1ccco1)N1CCN(C2CC(=O)N(c3ccc(C(F)(F)F)cc3)C2=O)CC1 (centres unmarked) | -25.5%
CCCCCc1c(C)nc(Nc2nc(C)c3cc(OC)ccc3n2)[nH]c1=O | 6.83%
Cc1c(CC(=O)N2CCC(C(=O)O)CC2)c(=O)oc2cc3c(cc12)CCC1(CCCCC1)O3 | 0.494%
Cc1ccc(C(=O)Cn2cncn2)cc1.Cl | 10.1%

SMILES | hERG current change (%, negative = inhibition) at 10uM
COc1ccc(Cl)cc1NC(=O)CN(C)S(=O)(=O)c1cccs1 | -26.2%
CN(C)C(=O)N1CCN(C(=O)c2ccccc2Sc2ccccc2C#N)CC1 | -2.59%
CCOC(=O)c1c(C)[nH]c(C)c1C(=O)CN1C(=O)NC2(CCCCCC2)C1=O | 6.33%
CCOC(=O)CCCSc1nc(-c2ccc3c(c2)OCO3)cc(C(F)(F)F)c1C#N | 6.74%
O=c1[nH]c(=O)n(CCC2=CCCCC2)c(O)c1/C=N/Nc1cccc2ccccc12 | 1.33%
CCc1cc(=O)oc2c(C)c(OCC(=O)NCC3CCC(C(=O)O)CC3)ccc12 (centres unmarked) | -0.379%
O=C(COC(=O)CCc1ccccc1)Nc1ccccc1OC(F)F | -2.25%
CCCCCCn1c(N2CCCC2)nc2c1c(=O)n(C)c(=O)n2C | -1.96%
O=C1Nc2ccccc2N=C(c2ccccc2)C1Br (centres unmarked) | 9.91%
S=C(NCc1ccco1)N/N=C/c1ccc(Cl)cc1 | 7.02%
CCC1(C)NC(=O)N(CC(=O)N2N=C(c3ccccc3)CC2c2ccc(OC)cc2)C1=O (centres unmarked) | -8.3%
Cc1ccccc1-c1ccc(=O)n(CC(=O)Nc2ccc(S(=O)(=O)N(C)C)cc2)n1 | 14.5%
O=C(Nc1nccs1)c1cccnc1 | 1.45%
O=C(CN1C(=O)c2cccc3cccc(c23)C1=O)NCCN1CCOCC1 | 13.7%
COc1ccc(S(=O)(=O)N2Cc3ccccc3CC2C(=O)O)cc1OC (centres unmarked) | 4.9%
CC(=O)NC12CC3CC(C1)CC(C(=O)Nc1nc4c(C)cccc4s1)(C3)C2 | -39%
COc1ccc(CCNC(=O)COC(=O)Cc2cccc3ccccc23)cc1 | 3.32%
Cc1csc(SC(C)C(=O)Nc2ccc(S(=O)(=O)N3CCCC3)cc2)n1 (centres unmarked) | -6.61%
Cn1c(=O)c2c(nc(N/N=C/c3c(O)n(C4CCCCC4)c(=S)[nH]c3=O)n2C)n(C)c1=O | 12.6%
COc1c(C)cc(C(=O)C2CCCN(C(=O)c3ccoc3)C2)cc1C (centres unmarked) | -7.28%
O=C(NCc1ccco1)c1cc(S(=O)(=O)N2CCCC2)ccc1Cl | 2.26%
Cc1cc(C)cc(NC(=O)c2cc(C)n(Cc3cccs3)c2C)c1 | 2.37%
